From the supplement of paper PMC4723716
± gives the uncertainty stated by the source. Whole data set: some 9,900 compounds, median “viability index relative to DMSO control” near 1, cut for the lowest 2% near 0.85. This is one part of the list.

Tested on: Plasmodium falciparum NF54 stage V gametocytes
Test: viability index relative to DMSO control (fraction); higher = less gametocyte killing
Settings: 2.5 µM, library set: Broad Institute DOS, incubation time: 72 h
Method in brief: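 P. falciparum NF54 stage V gametocytes in serum-free screening medium (0.75% gametocytemia, 1.25% hematocrit, 10 µl) were incubated with compound at 2.5 µM in 1,536-well plates for 72 hr at 37°C under low oxygen. Then 3 µl of 2.5 µM MitoTracker Red CMXRos plus 0.13% saponin was added for one to two hours. One field per well was imaged, 20–70 µm2 red particles were counted, and the viability index was the count divided by the plate mean of DMSO wells.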

Q: Which viability index does the source give for `CC(C)NC(=O)N1[C@H](CO)[C@H](c2ccccc2)C12CN(C(=O)Cc1cccnc1)C2` here?
A: The viability index was 1.06 ± 0.043.

Q: For `CC(C)NC(=O)NCC[C@@H]1CC[C@@H](NS(=O)(=O)c2ccc(Oc3ccccc3)cc2)[C@@H](CO)O1`, which viability index is on record?
A: The viability index was 1.16 ± 0.092.

Q: Which viability index does the source give for `COC(=O)C[C@H]1C[C@@H]2c3cc(NC(=O)c4ccc5c(c4)OCO5)ccc3O[C@@H]2[C@H](CO)O1` here?
A: The viability index was 1.01 ± 0.065.

Q: For `C[C@H](CO)N1C[C@H](C)[C@@H](CN(C)C(=O)Nc2cccc(C(F)(F)F)c2)OCc2cn(nn2)CCCC1=O`, which viability index is on record?
A: The viability index was 0.997 ± 0.027.

Q: For `CNC[C@@H]1Oc2ccc(NS(=O)(=O)c3ccc(OC)cc3)cc2C(=O)N([C@@H](C)CO)C[C@@H]1C`, which viability index is on record?
A: Its viability index is 1.05 ± 0.016.

Q: Which viability index does the source give for `COCC(=O)N1[C@@H]2Cn3c(ccc(/C=C/c4ccccc4)c3=O)[C@H]1[C@@H](C(=O)N1CCOCC1)[C@@H]2CO` here?
A: Its viability index is 1.11 ± 0.028.

Q: With `C[C@@H]1CN([C@@H](C)CO)C(=O)c2c(c3ccccc3n2C)-c2ccccc2CO[C@@H]1CN(C)S(=O)(=O)c1ccccc1C#N` as the molecule, how does the viability index read?
A: Its viability index is 1.07 ± 0.09.

Q: For `C[C@H](CO)N1C[C@H](C)[C@@H](CN(C)S(=O)(=O)c2cn(C)cn2)OCc2ccccc2-c2ccccc2C1=O`, which viability index is on record?
A: The viability index was 1.05 ± 0.067.

Q: Which viability index does the source give for `COCC(=O)N1[C@H](CO)[C@@H](c2ccc(-c3ccccc3OC)cc2)C12CN(C(C)=O)C2` here?
A: Its viability index is 1.09 ± 0.044.

Q: `O=C(c1ccncc1)N1C[C@H]2[C@@H](c3ccccc31)[C@H](CO)N2Cc1ccccc1F` was tested. Which viability index did it give?
A: The viability index was 0.999 ± 0.069.

Q: How did the viability index turn out when `COc1ccccc1-c1ccc2n(c1=O)C[C@H]1[C@H](CO)[C@@H](C(=O)NCc3ccccc3Cl)N[C@@H]21` was run?
A: The viability index was 1 ± 0.041.

Q: How did the viability index turn out when `CCC(=O)N1CC(=O)N2[C@H](CO)[C@H](c3ccc(-c4ccc(C#N)cc4)cc3)[C@H]2C1` was run?
A: The viability index was 0.95 ± 0.037.

Q: Which viability index does the source give for `C[C@H](CO)N1C[C@H](C)[C@@H](CN(C)C(=O)Nc2cccc3ccccc23)OCc2cn(nn2)CCCC1=O` here?
A: Its viability index is 1.026 ± 0.01.

Q: How did the viability index turn out when `CN(C)C(=O)c1ccc(-c2ccc3c(c2)[C@@H]2[C@@H](CCN2Cc2ccncc2)[C@@H](CO)N3)cc1` was run?
A: The viability index was 1.11 ± 0.019.

Q: Which viability index does the source give for `N#C[C@H]1[C@@H](c2ccccc2-c2cccc(F)c2)[C@H](CO)N1C(=O)CN1CCOCC1` here?
A: The viability index was 1.14 ± 0.08.

Q: For `COc1ccccc1S(=O)(=O)N(C)C[C@@H]1OCc2cn(nn2)CCCC(=O)N([C@H](C)CO)C[C@H]1C`, which viability index is on record?
A: Its viability index is 1.032 ± 0.0056.

Q: For `O=C(C[C@@H]1CC[C@H]2[C@@H](COC[C@@H](O)CN2C(=O)c2cnccn2)O1)N1CCN(c2ccccc2)CC1`, which viability index is on record?
A: Its viability index is 1.06 ± 0.018.

Q: Which viability index does the source give for `Cc1ccc(S(=O)(=O)N(C)C[C@@H]2OCCCC[C@@H](C)Oc3ccc(NC(=O)c4ccncc4)cc3C(=O)N([C@@H](C)CO)C[C@H]2C)cc1` here?
A: The viability index was 1.03 ± 0.13.

Q: `COc1cccc(NC(=O)C[C@@H]2CC[C@@H]3[C@@H](COc4ccc(NS(=O)(=O)c5cccc(F)c5)cc4C(=O)N3C)O2)c1` was tested. Which viability index did it give?
A: The viability index was 1.12 ± 0.11.

Q: Which viability index does the source give for `COc1cccc(-c2ccc([C@@H]3[C@H]4CNC[C@@H]3N4C(=O)NC3CCCCC3)cc2)c1` here?
A: The viability index was 1.06 ± 0.03.

Q: With `COc1ccc(CN2[C@@H]3CN(C(=O)NC(C)C)c4ccccc4[C@@H]3[C@@H]2CO)cc1` as the molecule, how does the viability index read?
A: The viability index was 1.1 ± 0.0094.

Q: With `Cc1noc(C)c1S(=O)(=O)N(C)C[C@H]1OCCCC[C@H](C)Oc2ccc(NC(=O)CCC(F)(F)F)cc2C(=O)N([C@H](C)CO)C[C@H]1C` as the molecule, how does the viability index read?
A: Its viability index is 1.012 ± 0.01.

Q: How did the viability index turn out when `CCCNC(=O)N(C)C[C@H]1Oc2cc(C#C[C@@H](C)O)ccc2S(=O)(=O)N([C@H](C)CO)C[C@@H]1C` was run?
A: The viability index was 1.04 ± 0.015.

Q: `C[C@H]1CN([C@@H](C)CO)C(=O)c2cccc(N(C)C)c2O[C@@H]1CN(C)C(=O)Nc1ccc(F)cc1` was tested. Which viability index did it give?
A: Its viability index is 0.943 ± 0.017.

Q: For `CC(C)(C)S(=O)N1Cc2cc(C(=O)NCCCN3CCOCC3)nc(-c3cccc(-c4cccc(F)c4)c3)c2[C@H]1CCO` (stereo not given in full), which viability index is on record?
A: The viability index was 1.01 ± 0.057.

Q: How did the viability index turn out when `O=C1CN(S(=O)(=O)Cc2ccccc2)C[C@H]2[C@H](c3ccc(C#Cc4ccccc4)cc3)[C@H](CO)N12` was run?
A: Its viability index is 1.051 ± 0.006.

Q: Which viability index does the source give for `C[C@@H]1CN([C@@H](C)CO)C(=O)c2ccccc2-c2ccccc2CO[C@H]1CN(C)S(=O)(=O)c1cn(C)cn1` here?
A: Its viability index is 0.99 ± 0.16.

Q: `O=C(NC1CCCC1)[C@@H]1[C@@H](CO)[C@@H]2Cn3c(cccc3=O)[C@H]1N2C(=O)CC1CC1` was tested. Which viability index did it give?
A: The viability index was 1.117 ± 0.0051.

Q: `CNC[C@@H]1Oc2c(NS(=O)(=O)c3ccc(Cl)cc3)cccc2C(=O)N([C@@H](C)CO)C[C@H]1C` was tested. Which viability index did it give?
A: The viability index was 1.0352 ± 0.00018.

Q: For `O=C(NC1CCCC1)N1CCCCN2[C@H](CO)[C@@H](c3ccc(-c4cccnc4)cc3)[C@@H]2C1`, which viability index is on record?
A: Its viability index is 1.01 ± 0.063.

Q: Which viability index does the source give for `C[C@@H]1CN([C@@H](C)CO)S(=O)(=O)c2ccc(Br)cc2O[C@@H]1CN(C)Cc1ccc2c(c1)OCO2` here?
A: The viability index was 0.857 ± 0.15.

Q: For `O=C(C[C@@H]1C[C@H]2c3cc(NC(=O)C4CCOCC4)ccc3O[C@H]2[C@H](CO)O1)NCc1cccnc1`, which viability index is on record?
A: The viability index was 1.06 ± 0.0075.

Q: Which viability index does the source give for `N#Cc1ccc(-c2ccc([C@@H]3[C@@H]4CN(Cc5cocn5)C[C@H]3N4)cc2)cc1` here?
A: The viability index was 0.993 ± 0.0099.

Q: `N#C[C@H]1N[C@H](CO)[C@H]1c1ccc(C#Cc2ccccc2F)cc1` was tested. Which viability index did it give?
A: Its viability index is 1.04 ± 0.047.

Q: For `C[C@H]1CN([C@@H](C)CO)C(=O)c2cc(NS(C)(=O)=O)ccc2O[C@H]1CN(C)C`, which viability index is on record?
A: Its viability index is 0.981 ± 0.07.

Q: How did the viability index turn out when `COc1ccc(C[C@@H]2CCn3nncc3COC[C@@H](c3ccccc3)NC2=O)cc1` was run?
A: Its viability index is 1.1 ± 0.049.

Q: How did the viability index turn out when `CC(C)C(=O)Nc1ccc2c(c1)C(=O)N(C)[C@@H]1CC[C@H](CC(=O)NCCc3ccccc3)O[C@H]1CO2` was run?
A: The viability index was 1.07 ± 0.088.

Q: For `CO[C@H]1CN(C)C(=O)c2cc(NC(=O)Cc3ccccc3)ccc2OC[C@@H](C)N(C(=O)c2ccccc2F)C[C@H]1C`, which viability index is on record?
A: The viability index was 1.06 ± 0.066.

Q: Which viability index does the source give for `COc1ccc(S(=O)(=O)Nc2cccc3c2O[C@H](CN(C)CC2CCCCC2)[C@@H](C)CN([C@@H](C)CO)C3=O)cc1` here?
A: Its viability index is 0.951 ± 0.18.

Q: With `O=C(c1ccccc1F)N1C[C@@H]2[C@H](c3ccccc31)[C@@H](CO)N2Cc1ccc2c(c1)OCO2` as the molecule, how does the viability index read?
A: Its viability index is 1.06 ± 0.18.

Q: With `COc1ccc(S(=O)(=O)N(C)C[C@@H]2Oc3ccc(N(C)C)cc3CC(=O)N([C@@H](C)CO)C[C@@H]2C)cc1` as the molecule, how does the viability index read?
A: The viability index was 1.02 ± 0.029.

Q: With `N#C[C@@H]1[C@H](c2ccccc2-c2cccc(F)c2)[C@H](CO)N1C(=O)CN1CCOCC1` as the molecule, how does the viability index read?
A: Its viability index is 1.15 ± 0.068.

Q: `COc1cccc(-c2ccccc2[C@@H]2[C@@H](C#N)N(C(=O)Cc3ccccc3)[C@H]2CO)c1` was tested. Which viability index did it give?
A: The viability index was 1.12 ± 0.079.

Q: For `O=C(C[C@H]1CC[C@H]2[C@@H](COC[C@H](O)CN2C(=O)Nc2ccc(Cl)cc2)O1)NCC1CCCCC1`, which viability index is on record?
A: The viability index was 1.06 ± 0.038.

Q: Which viability index does the source give for `O=C(Nc1cccc(Cl)c1)N1[C@@H]2CNC[C@H]1[C@@H]2c1ccc(/C=C/c2ccccc2)cc1` here?
A: The viability index was 1.1 ± 0.049.
